Among all 310,000 compounds or so, about 2,200 (0.71%) showed an effect of 50% or more. Effects have a minus sign here. The list shows a part of the results.
Target: human ether-à-go-go-related gene (hERG) potassium channel (human, UniProt Q12809)
Experiment: primary screen, population patch clamp on CHO cells stably expressing hERG

human ether-à-go-go-related gene (hERG) potassium channel, sequence (Q12809 whole entry, looked up): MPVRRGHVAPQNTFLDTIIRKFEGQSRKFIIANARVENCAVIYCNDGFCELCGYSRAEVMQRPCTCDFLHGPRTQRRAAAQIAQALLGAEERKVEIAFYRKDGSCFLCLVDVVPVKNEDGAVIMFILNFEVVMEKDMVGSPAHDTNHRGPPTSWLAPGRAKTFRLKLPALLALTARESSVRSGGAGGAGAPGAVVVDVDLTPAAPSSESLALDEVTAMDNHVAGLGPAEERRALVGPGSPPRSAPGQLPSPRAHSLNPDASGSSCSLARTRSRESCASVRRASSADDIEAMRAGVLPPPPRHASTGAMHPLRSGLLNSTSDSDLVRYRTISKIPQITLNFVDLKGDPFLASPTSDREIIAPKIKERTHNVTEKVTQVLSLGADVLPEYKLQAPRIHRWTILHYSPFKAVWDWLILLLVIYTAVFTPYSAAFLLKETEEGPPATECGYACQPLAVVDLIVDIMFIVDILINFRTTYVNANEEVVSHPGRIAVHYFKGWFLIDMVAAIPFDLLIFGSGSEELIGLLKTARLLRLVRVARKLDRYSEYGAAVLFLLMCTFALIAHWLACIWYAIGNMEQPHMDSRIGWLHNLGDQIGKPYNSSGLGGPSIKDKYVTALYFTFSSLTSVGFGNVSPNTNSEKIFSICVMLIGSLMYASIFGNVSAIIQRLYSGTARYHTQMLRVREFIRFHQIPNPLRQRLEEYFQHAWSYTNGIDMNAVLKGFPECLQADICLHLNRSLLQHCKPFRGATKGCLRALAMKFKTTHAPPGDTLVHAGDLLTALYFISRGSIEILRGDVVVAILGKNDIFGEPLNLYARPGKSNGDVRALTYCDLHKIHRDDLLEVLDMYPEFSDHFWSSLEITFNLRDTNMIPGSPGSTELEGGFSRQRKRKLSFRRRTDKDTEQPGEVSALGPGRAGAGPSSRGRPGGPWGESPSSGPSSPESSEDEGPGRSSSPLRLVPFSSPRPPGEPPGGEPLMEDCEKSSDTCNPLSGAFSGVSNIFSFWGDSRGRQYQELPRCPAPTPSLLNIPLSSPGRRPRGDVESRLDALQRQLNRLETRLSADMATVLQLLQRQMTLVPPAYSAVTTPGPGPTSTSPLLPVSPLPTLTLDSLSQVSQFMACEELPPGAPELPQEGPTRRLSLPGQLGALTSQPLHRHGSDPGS

Structure (SMILES)	hERG current change (%, negative = inhibition) at 1uM [%]
Cc1oc(-c2cccs2)nc1CSCC(=O)NC1CC1	3.5
CN(Cc1ccc(Cl)cc1Cl)C(=O)c1cc(=O)c2ccccc2o1	-6.55
COc1cc([N+](=O)[O-])cc(/C=N/NC(=O)Cn2nccc2C)c1O	3.73
Cc1sc(NC(=O)C2=COCCO2)c(C#N)c1C	12.8
CC12CCC(c3c(C(=O)N4CCOCC4)nn(-c4ccccc4)c31)C2(C)C (centres unmarked)	-5.53
CCC(C(=O)OC)n1cnc2scc(-c3ccc(C)c(C)c3)c2c1=O (centres unmarked)	10.1
COC(=O)CCC(=O)Nc1ccc(N=Nc2ccccc2)cc1	-4.44
Cc1csc(NC(=O)c2c(-c3ccccc3)noc2C)n1	17
Cc1nnc(C)n1/N=C/C=C/c1ccccc1	11.5
CCS(=O)(=O)N1N=C(c2cccc(NS(C)(=O)=O)c2)CC1c1cccs1 (centres unmarked)	8.06
COc1ccc(CCC(=O)OCC(=O)Nc2c(C)nn(-c3ccccc3)c2C)cc1	5.46
Cl.Oc1cc2c(cc1O)C(c1ccccc1)CNCC2 (centres unmarked)	7.43
COc1ccc(NC(=O)c2nnn(Cc3ccc(SC)cc3)c2N)c(OC)c1	15
Cc1cc(C)n2nc[n+](C)c2n1.[I-]	13.2
COc1ccc(/C=N/c2oc(C)c(C)c2C#N)c(OC)c1	15
COc1ccccc1N(C(=O)CNC(=O)c1ccco1)C(C(=O)NC1CCCCC1)c1ccncc1 (centres unmarked)	25.8
COc1ccc(-c2cc(C(=O)N/N=C/c3sccc3C)c3ccccc3n2)c(OC)c1	5.99
NC(=O)C1CCCN(C(=O)CCCNC(=O)c2ccc(Cl)cc2)C1 (centres unmarked)	15.5
COC(=O)[C@]1(C)N[C@H](c2ccc(-c3ccc(Cl)c(Cl)c3)cc2)[C@@H]2C(=O)N(C)C(=O)[C@@H]21.O=C(O)C(F)(F)F	9.12
CC(=O)OC(C(=O)NC1CCCCC1)c1ccccc1 (centres unmarked)	9.71
CN(CC(=O)NC1CCCCCC1)S(=O)(=O)c1cnc[nH]1	10.8
COCCN(C(=O)c1snc(C(N)=O)c1N)C(C(=O)NC1CCCC1)c1cc(OC)c(OC)c(OC)c1 (centres unmarked)	-9.21
CNC(=O)COC(=O)/C=C/c1cn(-c2ccccc2)nc1-c1ccc2c(c1)OCCO2	10.1

Structure (SMILES)	hERG current change (%, negative = inhibition) at 1uM [%]
Cc1ccc(C(=O)Nc2ccc(N3CCOCC3)nc2)cc1	6.82
CCOC(=O)Cn1nc(C)c(NC(=O)COc2ccccc2)c1C	17.7
O=C(CSc1ncccn1)NC(=O)Cc1ccccc1	12
O=[N+]([O-])c1ccc(Oc2c(F)c(F)nc(N3CCCC3)c2F)cc1	11
O=C(NCc1cccs1)C1CCN(C(=O)NCc2ccccc2)CC1	11.5
Cc1cccc(C)c1NC(=O)Cn1c(=O)n(CCC(=O)NCc2ccco2)c(=O)c2sccc21	5.46
CCCN(Cc1nnc(-c2cccs2)o1)C(=O)c1cc(S(=O)(=O)N2CCOCC2)ccc1C	-2.82
CCOc1ccc(Br)cc1S(=O)(=O)N1CCSC1	-0.112
CCCCn1c(N)c(N(CCOC)C(=O)C2CCN(S(=O)(=O)c3ccc(F)cc3)CC2)c(=O)[nH]c1=O	5.48
O=C(NCC1CCCO1)c1sc(=S)n2c1[nH]c(=O)c1ccc(C(=O)N3CCCCC3)cc12 (centres unmarked)	10.7
CC1(NC(=O)CCc2ccccc2)CCN(CCCc2ccccc2)C1=O (centres unmarked)	7.28
COc1ccc(OC)c(C2NC(=O)NC(C)=C2C(=O)OC2CCCCC2)c1 (centres unmarked)	8.04
CNC(=S)SCCOc1ccccc1C	8.74
Cc1ccc(/C=C(\NC(=O)c2ccccc2)C(=O)N2CCCC2C(=O)O)cc1 (centres unmarked)	3.75
Cc1cc(-c2n[nH]c(=S)n2/N=C/c2ccc(C)o2)n[nH]1	11.1
N/C(=N\OC(=O)Cc1ccc([N+](=O)[O-])cc1)c1ccc([N+](=O)[O-])cc1	-6.81
CCC(C)(C)NC(=O)c1ccc(Sc2nncn2C)c([N+](=O)[O-])c1	8.02
CN(C)S(=O)(=O)c1cccc(NC(=O)CSc2nncn2C)c1	12.2
COc1ccc(Cl)cc1NC(=O)CN(C)C(=O)c1cc2c(s1)CCC(C)C2 (centres unmarked)	15
c1ccc(CCc2ccncc2)cc1	10.7
N/C(=N\O)c1ccc(NC(=O)c2cccs2)cc1	7.55
CCOC(=O)COc1ccccc1/C=N\NC(=O)c1cc2c(ccc3ccccc32)o1	9.86
COc1ccc(OCC(=O)N2CCN(S(=O)(=O)c3ccc(Cl)s3)CC2)cc1	0.551

Structure (SMILES)	hERG current change (%, negative = inhibition) at 1uM [%]
Clc1cccc(Nc2nc(-c3cccnc3)cs2)c1	7.97
CC(=O)NC1(C(F)(F)F)C(=O)Nc2c1c(=O)[nH]c(=O)n2Cc1ccco1 (centres unmarked)	11.4
CCOc1ccc(NC(=O)CCS(=O)(=O)c2ccc(C)cc2)cc1	2.45
CCc1c(C)c2c(C)nn(-c3ccccc3)c2oc1=O	12
c1ccc(N(c2ccccc2)c2nc(-n3ccnc3)nc(-n3ccnc3)n2)cc1	-2.04
CN(C)C=O.COc1cc(/C=C/c2nc3ccccc3c(=O)n2-c2ccc(O)cc2)ccc1O	19.3
COc1ccccc1-c1n[nH]c(=S)o1	16.7
O=C(CCNC(=O)c1ccccc1Cl)Nc1cc(C(F)(F)F)ccc1Cl	15.2
Cc1cccc(N(C(=O)Nc2ccccc2)C2=NCC(C)S2)c1 (centres unmarked)	5.09
CCCCCCC(=O)Nc1nc(C)c(-c2csc(Nc3cccc(OC)c3)n2)s1	15.9
Cc1cccc(/C=N/n2c(-c3ccccc3)n[nH]c2=S)c1O	9.2
CN(C(=O)c1cccc(Nc2ccc(-c3ccc4c(c3)OCCO4)nn2)c1)C1CCCCC1	5.84
COc1cccc(C(=O)N2CCN(Cc3ccccc3C(F)(F)F)CC2)c1.O=C(O)C(=O)O	3.08
COCCNc1nc2c(c(=O)n(Cc3ccccc3F)c(=O)n2C)n1C	2.52
CC(=O)Cn1c(=O)oc2ccccc21	9.03
Brc1cccc(-c2n[nH]c(-c3ccccc3)n2)c1	-2.61
COc1cc(C(=O)NCc2cc3cc(Cl)ccc3n2C)cc(OC)c1OC	18.9
COc1ccc(NS(=O)(=O)c2ccc(NC(=O)c3ccc(CN4CCOCC4)cc3)cc2)cc1	13.9
Cc1ccccc1NC(=O)COC(=O)c1c[nH]c(=O)[nH]c1=O	17.8
COc1ccc2cc(C(=O)NCc3ccco3)c(=Nc3ccc(C(=O)O)cc3)oc2c1	11.7
CCOC(=O)Cn1cc(C(=O)OC)c2ccccc21	18.7
O=C(COC(=O)c1ccc(Br)o1)c1ccc(S(=O)(=O)N2CCCCC2)cc1	11.2
CN(C(=O)Oc1cccc2cccnc12)c1ccccc1	13.4

Structure (SMILES)	hERG current change (%, negative = inhibition) at 1uM [%]
Cc1oc2cc(O)ccc2c(=O)c1Oc1ccccc1Br	20.6
CCc1[nH]nc2c1C(C1C=CCCC1)C(C#N)=C(N)O2 (centres unmarked)	10.1
Cc1cc[n+](C(C)C(=O)c2ccc(-c3ccccc3)cc2)cc1.[Br-] (centres unmarked)	14.1
COc1cc(NS(=O)(=O)c2ccc(OC)c(C)c2C)c(OC)cc1Cl	18.5
C=CCN(C(=O)CCC(=O)Nc1cc(C)on1)C(C(=O)NC1CCCC1)c1ccc(C)cc1 (centres unmarked)	12.9
COC(CN(C(=O)CCl)C(C(=O)NC1CCCC(C)C1C)c1ccc(C)cc1)OC (centres unmarked)	9.46
O=C1CC(N2C(=O)/C(=C/C=C/c3ccccc3)SC2=S)C(=O)N1c1ccccc1 (centres unmarked)	7.82
Cn1c(Nc2ccc(Cl)cc2)cc(=O)n(C)c1=O	21.3
CCC1C(=O)N(c2nc(C)cc(C)n2)N=C1C (centres unmarked)	6.09
CCOC(=O)C1=C(N)Oc2c(oc(CO)cc2=O)C1c1ccc(Cl)cc1 (centres unmarked)	5.48
CC(CCc1ccccc1)NC(=O)CCc1cn(C)c2ccccc12 (centres unmarked)	21
Cc1ccc(OCC(=O)NCCNC(=O)c2ccccn2)cc1	16.4
COc1ccc(S(=O)(=O)N2CCCCC2)cc1NC(=O)COc1ccccc1	13.7
Cc1ccc(S(=O)(=O)N2CCN(C(=O)CCCOc3ccc(Cl)cc3C)CC2)cc1	0.647
CCOC(=O)NC(=S)Nc1ccc(C(C)(C)C)cc1	9.52
Cc1ccc2[nH]c3c(c2c1)CCCC3C(N)=O (centres unmarked)	7.6
O=C(N/N=C1/CC2C=CCC12)c1ccc(Br)o1 (centres unmarked)	14.8
COc1ccccc1NC(=O)c1ccc(NS(=O)(=O)c2cccc3cccnc23)cc1	11.7
Cl.O=C(O)C(c1ccccc1)N1CCCCC1 (centres unmarked)	15.4
COc1cccc(-c2ccc(NC(=O)C3CCCN(Cc4nccn4C)C3)cc2)c1 (centres unmarked)	-6.7

Source: article PMC4336329 (PLoS ONE, 2015)
